Screen size: about 350,000 compounds; about 9,900 (2.8%) were called active. This list was built around the results that the source calls inconclusive (neither active nor inactive); the mix of calls is not that of the screen. The call rests on the fitted dose curve; in most records, active means well fitted activation curve with a large enough effect; inconclusive means small, poorly fitted or top-dose-only effect; inactive means no such curve, though single readings can be large or run the other way. Potencies of inconclusive entries are left out as doubtful fits.
experiment: A quantitative high throughput screen for small molecules that induce DNA re-replication in MCF 10a normal breast cells.; further: nearly all actives have a fitted effect of over 50% in size; on activity, positive = re-replication: % of control where 0% means no effect; details: MCF 10A DNA re-replication, Hoechst nuclear intensity, 48 h; activity, positive = re-replication: at 46.1 µM (top of the series)
Potency means the concentration at half of the fitted maximal effect; tags describe the fitted curve by direction and shape.

SMILES	Potency	activity, positive = re-replication
CCN1C(=O)C(=C2C=C(C)OC(C)=C2)C(=O)N(CC)C1=S	inconclusive [activator, full curve, poor fit]	–
CCOS(C)(=O)=O	inactive	–
Cc1cccc(NC(=O)N2CCCC2)c1	inactive	–
O=C(CSc1nc(-c2ccc(Cl)cc2)[nH]c(=O)n1)Nc1cccc(Cl)c1	inconclusive [activator, single point]	–
Cc1cccc(N=Cc2c(O)n(-c3ccccc3C)c(=O)[nH]c2=O)c1	inconclusive [activator, single point]	–
CCOP(=O)(OCC)c1ccc(O)cc1	inconclusive [activator, partial curve, poor fit]	–
Cc1nn(-c2ccccc2)c(Cl)c1/C=C(/CC(=O)O)c1nc2ccccc2s1	inconclusive [activator, single point]	–
NC(N)=Nc1ccc2[nH]c3c(c2c1)C[C@@]1(O)[C@H]2Cc4ccc(O)c5c4[C@@]1(CCN2CC1CC1)[C@H]3O5	inconclusive [activator, single point]	–
COC(=O)C1C2CC[C@@H](CC1OC(=O)c1ccccc1)N2 (some centres undefined)	inconclusive [activator, full curve, poor fit]	–
O=c1c2ccccc2nc(-c2ccccc2)n1-c1cccc(O)c1	inconclusive [activator, partial curve, poor fit]	–
COc1cc(C2c3cc4c(c(O)c3CC3COC(=O)C32)OCO4)cc(OC)c1OC (centres undefined)	–	inconclusive: 89.3% [activator]
C/C(=C/C=C/[C@@H](C)C(=O)O)[C@H]1CN[C@H](C(=O)O)[C@H]1CC(=O)O	inconclusive [activator, partial curve, poor fit]	–
O=[N+]([O-])c1ccc(C(=Nc2ccccc2)N2CC2)cc1	inconclusive [activator, single point]	–
Cc1ccc2c(c1)C1CN(C)CCC1N2C(=O)Nc1cccc(C(F)(F)F)c1 (centres undefined)	inactive	–
CCC1(C2=NCCN2)Cc2ccccc2O1 (centres undefined)	inconclusive [activator, partial curve]	–
COC(=O)C1=C(c2ccc(Cl)c(C(F)(F)F)c2)C[C@@H]2CC[C@H]1N2C(=O)NCCOc1ccccc1Cl	inconclusive [activator, single point]	–
CN(C(=O)Oc1ccc(Cl)c2cccnc12)c1ccccc1	inactive	–
CCN(C(=O)COC(=O)c1cc(C)n(C2CC2)c1C)c1ccccc1	inconclusive [activator, partial curve, poor fit]	–
CN(C)CCN(CC1CCCN(Cc2ccccc2F)C1)C(=O)Cc1c(F)cccc1F (centres undefined)	inactive	–
COC(=O)C1=C(c2ccc(F)cc2OCc2ccccc2)C[C@@H]2CC[C@H]1N2C(=O)NCCN1CCOCC1	active: 0.58 µM	–

SMILES	Potency	activity, positive = re-replication
Cc1ccccc1-c1nc(CS(=O)CC(=O)N2CCC3(CC2)OCCO3)c(C)o1 (centres undefined)	inactive	–
COc1ccc(NP(=O)(Oc2ccccc2OC)Oc2ccccc2OC)cc1	inconclusive [activator, partial curve, poor fit]	–
CC(=O)O[C@@]12CO[C@@H]1C[C@H](O)[C@@]1(C)C(=O)[C@H](O)C3=C(C)[C@@H](OC(=O)[C@H](O)[C@@H](NC(=O)c4ccccc4)c4ccccc4)C[C@@](O)([C@@H](OC(=O)c4ccccc4)C12)C3(C)C (some centres undefined)	–	inconclusive: 133% [activator]
C=C(C)[C@@H]1CC[C@]2(C(=O)O)CC[C@]3(C)C(CCC4[C@@]5(C)CC[C@H](O)C(C)(C)C5CC[C@]43C)C12 (some centres undefined)	inconclusive [activator, partial curve, poor fit]	–
Cn1c(O)c(C(=NCCc2c[nH]c3ccccc23)c2ccccc2)c(=O)n(C)c1=O	inconclusive [activator, single point]	–
COc1ccc2c(c1)C(NC(C)=O)CCc1cc(OC)c(OC)c(OC)c1-2 (centres undefined)	inconclusive [activator, full curve, poor fit]	–
CCC(C(=O)O)C1CCC(C)C(C(C)C(O)C(C)C(=O)C(CC)C2OC3(C=CC(O)[C@@]4(CC[C@](C)(C5CC[C@@](O)(CC)C(C)O5)O4)O3)C(C)CC2C)O1 (some centres undefined)	inconclusive [activator, full curve]	–
Cc1ccc(S(=O)(=O)Nc2ccc3ncccc3c2[N+](=O)[O-])cc1	inconclusive [activator, partial curve]	–
CCn1nc(-c2ccccc2)nc2c(=O)n(C)c(=O)nc1-2	active: 1.46 µM	–
CCOC(=O)C1(CCc2ccccc2)CCN(Cc2cccc3cnccc23)CC1	inconclusive [activator, partial curve, poor fit]	–
Cc1ccc(NP(=O)(Oc2ccccc2F)Oc2ccccc2F)cc1C	inconclusive [activator, single point]	–
CCCCN1C(=O)/C(=C/C=C/c2ccco2)C(=O)NC1=S	inactive	–
Cc1cc(C(C#N)c2ccc(Cl)cc2)c(Cl)cc1NC(=O)c1cc(I)cc(I)c1O (centres undefined)	inconclusive [activator, partial curve]	–
Cc1ccc(N2C(=O)NC(=O)C(CCc3ccccn3)(Cc3ccc(F)cc3)C2=O)cc1 (centres undefined)	inconclusive [activator, partial curve, poor fit]	–
N=C1c2ccccc2CN1c1ccc(F)c([N+](=O)[O-])c1	inactive	–
CC(C)(C)c1cc(C=C(C#N)C#N)cc(C(C)(C)C)c1O	inconclusive [activator, partial curve, poor fit]	–
COc1ccc(-[n+]2c(-c3ccccc3)cc(-c3ccccc3)cc2-c2ccccc2)cc1	inconclusive [activator, single point]	–
COc1cccc(N(C(C)=O)C2=NCCCS2)c1	inconclusive [activator, partial curve, poor fit]	–
C(=NC12CN3CN(CN(C3)C1)C2)c1cccnc1	inconclusive [activator, partial curve, poor fit]	–

Source: PubChem BioAssay AID624296 (National Center for Advancing Translational Sciences (NCATS), 2012)
